Some of the results follow.
Target: T1, OsWOX13 (Oryza sativa, UniProt Q5QMM3 1-267)
T1 sequence: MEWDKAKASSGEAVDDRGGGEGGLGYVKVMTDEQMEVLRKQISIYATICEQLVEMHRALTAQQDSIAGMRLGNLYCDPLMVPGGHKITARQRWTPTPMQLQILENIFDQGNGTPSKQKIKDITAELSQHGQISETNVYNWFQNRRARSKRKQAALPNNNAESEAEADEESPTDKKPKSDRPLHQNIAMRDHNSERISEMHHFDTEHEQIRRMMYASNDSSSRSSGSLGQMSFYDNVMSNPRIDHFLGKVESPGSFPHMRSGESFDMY
Assay: protein-binding microarray (RPBM); PBS, 2% BSA, 51.3 ng/ul salmon testes DNA, 50 uM zinc acetate, 200 nM TF, 25 C, 1 h; high values mean tight binding
Details: protein: recombinant; tags: N-terminal polyhistidine and DsRed monomer fusion (pET32a); label: CyDye5-dUTP incorporated in the synthesized complementary strand; 3' TTTTT single-stranded linker to array surface; dsDNA, one strand shown
In short: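 Transcription factors were made in E. coli BL21-CodonPlus as N-terminal fusions to a polyhistidine tag and DsRed, then purified on Ni–NTA. After primer extension with Cy5-dUTP and blocking with 2% BSA, a custom Agilent array was exposed for 1 h at 25 °C to 200 nM protein in PBS, 2% BSA, salmon testes DNA and 50 µM zinc acetate. Washed arrays were scanned on an Axon 4000B, and the binding signal is per-feature fluorescence intensity in arbitrary units.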

Sequence	binding signal
GTGGATTGAATCCCCTACGGTTGAGCCGCGAGCGCTTCATCGGAGTCACCTAGTGCAG	8380 fluorescence intensity (a.u.)
GTTTAATATTTATAATTAGCGTCCAAACATCCGATGTGATCGGAGTCACCTAGTGCAG	17500 fluorescence intensity (a.u.)
ACATAATTTATTGTCTGGTTTTGGCTAAAGAGAAATTAAACGGAGTCACCTAGTGCAG	14100 fluorescence intensity (a.u.)
CCGATTCTTTTGTCAAATTTACAATAAACATATACTGCATCGGAGTCACCTAGTGCAG	3970 fluorescence intensity (a.u.)
AAGCCTAATTAATCCATCCTTAGCAGATGTGGGTTACCGTCGGAGTCACCTAGTGCAG	8630 fluorescence intensity (a.u.)
ACTGATTTGTTTTATTGTTTTGATTTTAATCCTCTCAATTCGGAGTCACCTAGTGCAG	38800 fluorescence intensity (a.u.)
CAAAATTGAGGGTAGTTTTGGCCCAGATAAACCTCCTCCACGGAGTCACCTAGTGCAG	5910 fluorescence intensity (a.u.)
GCAAAATTGGTTTCATCAACTATTGAGTGGGTGTGCACTGCGGAGTCACCTAGTGCAG	9640 fluorescence intensity (a.u.)
TGCTTGATTTGTCGAATAACAGCCTGTCTGGGAGCATGCCCGGAGTCACCTAGTGCAG	24300 fluorescence intensity (a.u.)
ATCATGATTGTAAGGTTGGTGTCTATAGTCTTCCAATTATCGGAGTCACCTAGTGCAG	24400 fluorescence intensity (a.u.)
AATGATTAGCATTCGCGTGGCTTCAGACGAGGAGCCTATACGGAGTCACCTAGTGCAG	13500 fluorescence intensity (a.u.)
ATCTGACCCAGCAATCAACTCCTACGGTCCAGATTCAATGCGGAGTCACCTAGTGCAG	3820 fluorescence intensity (a.u.)
AAGTTAATTTCATTTCGAGCATGTTTTATTGCCAAAGTTTCGGAGTCACCTAGTGCAG	10700 fluorescence intensity (a.u.)
AACGGTATTCAATCAATCACTATCACTTACATACACAATCCGGAGTCACCTAGTGCAG	42200 fluorescence intensity (a.u.)
ATCTGATGAATAGACACGAATTCCTTTTCTGCGTCACTGGCGGAGTCACCTAGTGCAG	11700 fluorescence intensity (a.u.)
ACATAATTAGGCTCAAAAGATTCGTCTCGCAAAAGTTCCTCGGAGTCACCTAGTGCAG	23000 fluorescence intensity (a.u.)
ACCATAATTTCACCCATACTCTTAAGTGCAATACTACTCCCGGAGTCACCTAGTGCAG	8560 fluorescence intensity (a.u.)
AAAACGTAATTTCGAGATCCAATCCACACCTATTGAGTAACGGAGTCACCTAGTGCAG	4010 fluorescence intensity (a.u.)
TATAAGTTAATGCTCCATCAATTTTCATTTACATCGACAGCGGAGTCACCTAGTGCAG	3340 fluorescence intensity (a.u.)
AAGAATTGATGCACCTACGATCAAAGATACTTATCTCCGTCGGAGTCACCTAGTGCAG	3290 fluorescence intensity (a.u.)
AAAATATTGATTTTCGCAGACGAAAAGAGAGCTCCATCCCCGGAGTCACCTAGTGCAG	7550 fluorescence intensity (a.u.)

Sequence	binding signal
ATACTGACCCTTGATTGCATACCATTTAAAAGGGAAACTTCGGAGTCACCTAGTGCAG	9800 fluorescence intensity (a.u.)
CACAAATTAAACTCTAACACTTTCTATCACGACAACATGTCGGAGTCACCTAGTGCAG	14100 fluorescence intensity (a.u.)
AGTCCTACACTCTTTGCTAATTAGCTAGTTTGCCCCAACACGGAGTCACCTAGTGCAG	7020 fluorescence intensity (a.u.)
CAAAATTGACATGTTAAGAGTAAGCCAAGATGTTTGGCAGCGGAGTCACCTAGTGCAG	31600 fluorescence intensity (a.u.)
GTTAATTGGTTAATTCCATTGTTTCGCGCTCGTGGTTTCTCGGAGTCACCTAGTGCAG	38900 fluorescence intensity (a.u.)
CCAGATTACTATAAGCTGAATTATAATAAGCCGATATAGACGGAGTCACCTAGTGCAG	3910 fluorescence intensity (a.u.)
TAAAATAATAGGTTGTTGGATTGAAATATGCCTATCAAAACGGAGTCACCTAGTGCAG	5490 fluorescence intensity (a.u.)
ATTTTCACTAATCTATACCTAATTAAATAAGAATTCGTTTCGGAGTCACCTAGTGCAG	8000 fluorescence intensity (a.u.)
AATTTAATTTAATTTATGGAGTCTCGTATTTCTTGATTTTCGGAGTCACCTAGTGCAG	4590 fluorescence intensity (a.u.)
CCAAATTTGGTAATTTAGAATTTGAACTAGCGTGAGAAAACGGAGTCACCTAGTGCAG	19800 fluorescence intensity (a.u.)
ACTGACAGTTTAGATTCTGAGTAGCTTTGGACGTCCAGCCCGGAGTCACCTAGTGCAG	8670 fluorescence intensity (a.u.)
CATTGCAATTAATCATCCATGTAAAATTTCTGACTGTTCTCGGAGTCACCTAGTGCAG	14400 fluorescence intensity (a.u.)
CAACAGTAAATTAACCAACGTTTACTGCATCCTCAGCTAACGGAGTCACCTAGTGCAG	8530 fluorescence intensity (a.u.)
TAAAACTATTTAATTACCAAACTATTCACGTGATGAGATGCGGAGTCACCTAGTGCAG	14900 fluorescence intensity (a.u.)
GAAATTATCTCCTCAGTTTTGACAGTATCCTTGCCGTGCGCGGAGTCACCTAGTGCAG	4370 fluorescence intensity (a.u.)
ATTGATTTAGGAATGATTTTAATGCAAAGCTATATATATTCGGAGTCACCTAGTGCAG	11900 fluorescence intensity (a.u.)
TGCAAGGACAATTAATTGTACCCCGCGTCGCGTCGCTTACCGGAGTCACCTAGTGCAG	3950 fluorescence intensity (a.u.)
CATATTAATAGCAAATGATAGCAAACAAACACATATATTACGGAGTCACCTAGTGCAG	7040 fluorescence intensity (a.u.)
GTGAATTGGCATGTCAAACTTCTCATAACAAATCAATGCTCGGAGTCACCTAGTGCAG	5130 fluorescence intensity (a.u.)
AAGTAATTTAGTCAACTCTAAAAGTAACTATGTGTGTGTGCGGAGTCACCTAGTGCAG	17300 fluorescence intensity (a.u.)
TGCCGCAATTAGAAGATGATTTCGCTAGAAGAGCTAAAAGCGGAGTCACCTAGTGCAG	8340 fluorescence intensity (a.u.)
